Experimental data: PubChem BioAssay AID463173 (ICCB-Longwood Screening Facility, Harvard Medical School, 2010)
In all, about 52,000 compounds went through this assay and about 4,300 (8.3%) were called active. Rule as the data show it: active = survival mostly below about 52% (no sharp cut-off); inactive = mostly above about 56%. The list shows a part of the results.

What follows are molecules tested on DeltatarO mutant (assay: growth inhibition of S. aureus wild type versus tarO mutant, primary screen, teichoic acid synthesis inhibitors, RN4220, OD600 (AID 463173)). Details: OD600, 18 h, hits give low values, screened at 18.75 µg/mL (by protocol).

Structure (SMILES) | survival
Nc1cc(=O)nc(SCC(=O)Nc2ccccc2)n1CCc1ccccc1 | inactive: 85%
CCOCCOC(=O)c1ccc2c(c1)N(Cc1ccccc1C#N)C(=O)c1ccccc1S2(=O)=O | inactive: 99%
CCN(c1ccccc1)S(=O)(=O)c1ccc(NC(=O)c2nc(S(C)(=O)=O)ncc2Cl)cc1 | active: -1%
OC(CNCC1CCCO1)Cn1c2ccccc2c2ccccc21 (stereo unspecified) | inactive: 72%
CCOc1ccc(CCNC(=O)CCCn2c(=O)c3cccn3c3cccnc32)cc1 | inactive: 86%
COc1ccc(C2CCN(C(=O)N(C(C)C)C(C)C)CC2)cc1 | inactive: 94%
COc1ccc(-c2cc3ccc(O)c(CN4CCN(C)CC4)c3oc2=O)cc1OC | inactive: 98%
Cc1ccccc1OCC(=O)Nc1ccc2nc(SCC(=O)N3CCCC3)sc2c1 | inactive: 52%
O=C1Cc2cc(S(=O)(=O)Nc3ccc(OC(F)(F)F)cc3)cc3c2N1CCC3 | inactive: 144%
O=C(O)CCn1cnc2sc3c(c2c1=O)CCCC3 | inactive: 105%
Cc1ccccc1NC(=O)C1C2CCCCC21 (stereo unspecified) | inactive: 83%
CCOC(=O)c1cc(-c2ccc(OC)c(S(=O)(=O)N3CCN(c4ccccc4)CC3)c2)on1 | inactive: 92%
COc1ccc(S(=O)(=O)c2nnn(-c3cccc(Cl)c3)c2N)cc1 | inactive: 56%
CCOC(=O)c1c(-c2ccc(OC)c(OC)c2)csc1NC(=O)c1ccccc1F | inactive: 73%
COc1ccccc1Nc1nc(-c2ccccc2)c(CC(=O)O)s1 | inactive: 71%
COc1ccc2c(c1)c1c(c(=O)n(-c3cccc(C)c3)c(=O)n1CC(=O)NCCC1=CCCCC1)n2C | inactive: 71%
Cc1cccc(CNS(=O)(=O)c2ccc(-c3coc(C)n3)cc2)c1 | inactive: 99%
Cc1ccc2nc3c(cc(C(=O)NC4CCCC4)c(=N)n3C(C)C)c(=O)n2c1 | inactive: 72%
O=c1c2cccnc2n(Cc2cccc(F)c2)c(=O)n1Cc1ccc(F)cc1 | inactive: 118%

Structure (SMILES) | survival
CCC(Nc1ccc(-c2nc(-c3cccnc3)no2)cc1[N+](=O)[O-])c1ccccc1 (stereo unspecified) | inactive: 64%
COc1ccc2[nH]cc(CCNC(=O)Nc3cc(C)cc(C)c3)c2c1 | inactive: 91%
O=C(Nc1ccc(Cl)c(-c2nc3ccccc3o2)c1)c1cccc2c(Cl)cccc12 | inactive: 84%
COc1ccc(Nc2ccc3cc(S(=O)(=O)N4CCCC4)ccc3n2)cc1OC | inactive: 73%
Cc1ccc(CSC2=Nc3ccccc3C3=NC(CCC(=O)NCc4cccs4)C(=O)N23)c(C)c1 (stereo unspecified) | inactive: 76%
Fc1ccc(-c2nc3c4c(-c5ccccc5)c(-c5ccccc5)oc4ncn3n2)cc1 | inactive: 74%
Cc1cc(N2CCN(C)CC2)nc2ccc(NC(=O)Nc3ccc(F)cc3F)cc12 | inactive: 73%
CCOC(=O)c1ccc(N2CCN(c3cc(Cl)ccc3C)CC2)c(NC(=O)Nc2ccc(OCC)cc2)c1 | inactive: 90%
CCC(Oc1ccccc1)C(=O)N1CCN(Cc2cc(=O)n3nc(-c4cccc(C)c4)sc3n2)CC1 (stereo unspecified) | inactive: 98%
COc1cccc(-c2ccc3c(N)c(C(=O)c4ccc(F)cc4)sc3n2)c1 | active: 17%
CC(NC(=O)CCCN1C(=O)CCn2nc(-c3cn(C)c4ccccc34)cc21)c1ccccc1 (stereo unspecified) | inactive: 88%
O=C(CSc1nnc(-c2cccnc2)o1)N(C1CCCCC1)C1CCCCC1 | inactive: 82%
CCOC(=O)c1c(C)oc2nc(C)nc(NCC3CCN(Cc4ccc(F)cc4)CC3)c12 | inactive: 102%
COc1ccc(CNc2ncnc3c2cnn3-c2ccc(Cl)cc2)cc1 | inactive: 71%
CC(C)c1ccc(NC(=O)c2cc(S(=O)(=O)N3CCc4ccccc4C3)ccc2F)cc1 | inactive: 118%
CCCCOC(=O)c1ccc(NC2=NS(=O)(=O)c3ccccc32)cc1 | inactive: 66%
Cc1nn(-c2ccc(N3CCCC3)nn2)c(C)c1CCC(=O)Nc1ccccc1 | inactive: 83%
Cc1cccc(NC(=O)CCn2nc(C)c3c(C)n(-c4ccccc4)nc3c2=O)c1C | inactive: 57%
Cc1ccc2cc(CN(Cc3cccnc3)C(=O)c3cccnc3)c(=O)[nH]c2c1 | inactive: 106%

Structure (SMILES) | survival
Cc1ccc(-c2nc3n(n2)C(=O)CC(c2ccc(C)cc2)S3)cc1 (stereo unspecified) | inactive: 90%
Cc1ccc(-n2c(=O)c3c(c4cc(C)ccc4n3C)n(CC(=O)NCC3CCCO3)c2=O)cc1 (stereo unspecified) | inactive: 82%
Cc1ccc(NS(=O)(=O)c2c(C)nc3sccn3c2=O)c(Cl)c1 | inactive: 132%
Cc1cc(OCc2nnc(SCC(=O)OC(C)C)o2)ccc1Cl | inactive: 96%
COc1cc(Cl)c(NC(=O)CC(C)S(=O)(=O)c2cc3c(cc2C)NC(=O)CO3)c(OC)c1 (stereo unspecified) | inactive: 86%
Cc1ccc(NC(=O)CSc2nncn3c2cc2sccc23)cc1F | inactive: 61%
CC1=C(C(=O)Nc2ccccc2)C(c2ccco2)C(C#N)=C(SCC(=O)Nc2ccccc2)N1 (stereo unspecified) | inactive: 89%
CCOc1ccc(S(=O)(=O)N(CC(=O)NCCc2ccc(OC)cc2)c2ccccc2)cc1 | inactive: 92%
COc1ccccc1N1CCN(c2c(CN3CCCC3)c(=O)oc3ccccc23)CC1 | inactive: 91%
O=C(Nc1ccc(Cl)c(Cl)c1)N(Cc1c[nH]c2ccccc12)C1CCCCC1 | inactive: 69%
COC(=O)c1ccc([C@H]2Nc3ccc(S(=O)(=O)Nc4ccc(F)cc4)cc3[C@H]3C=CC[C@H]32)cc1 | active: 53%
Cc1ccc(S(=O)(=O)N2CCCc3cc(NS(=O)(=O)c4ccccc4)ccc32)cc1 | inactive: 78%
CCOC(=O)c1ccc(N2CCN(c3ccc(F)cc3)CC2)c(NC(=O)Nc2ccc(CC)cc2)c1 | inactive: 119%
CN(C)c1ncc(C(=O)NCc2ccccc2Cl)cn1 | inactive: 74%
COc1ccc(S(=O)(=O)NCc2ccc3c(c2)CCN3C(C)=O)cc1OC | inactive: 83%
Cc1ccc(NC(=O)CCS(=O)(=O)c2ccc3nc(C)sc3c2)c(C)c1 | inactive: 79%
CCOc1ccc(CN2C(=O)c3ccccc3Sc3ccc(C(=O)NCCCN4CCOCC4)cc32)cc1 | inactive: 134%
CC(=O)c1ccc(NC(=O)CSc2nc(-c3ccccc3C)nc3c2c(=O)n(C)c(=O)n3C)cc1 | inactive: 112%
